# Results: the supplement of paper PMC12632987
# Whole data set: some 4,500 sequences, median “median log2 fold change of GCK-ALFA target abundance (FLAG IP / Myc IP barcode read proportion)” near 0.078, cut for the lowest 2% near -0.6. Some of the results follow.
# B1: GBRAP_137_3668 (protein)
# chain: MIKVKIELEDGLAFAEVTIEGSKEELEKAAKIAEDIAGEIPNIAISVEITEDGKLKIDLFGTKEDIMEALKRLAKRLNKTVEVTEYNEETGEVTEFTITP
# B2: GBRAP_128_3261 (protein)
# chain: ANAEVVAQARAVVDQIKNSNAAEAQAIADAFMDWLLASSLEDAAQAVDVVESNLHKLTAEQLDILADAARKHLPLADPEKAELLAGLEVAALNEAEEKEE
# B3: GBRAP_160_4690 (protein)
# chain: SEKVEKAKKFIKEEFQEVVDLWPDVTPEELAAAVRVAFGNIKLELEELGLLTDEIDETIDKKEEEIVKAILENPNITKEELAKMLEEAAKEIEKKLEEAS
# B4: GBRAP_160_4419 (protein)
# chain: DELIEEVDELLDETEELVVELVEEGKREEAIAALRVGAGEILLLLDEDESVSEETEEKVDKILDETIKKFEENKDASPEEVRELLDKAREEILAVLKEGS
# B5: GBRAP_184_5105 (protein)
# chain: KVLVKEIEAETKEEAIEEAKKAIDEAAKQGAELILLLKLKNVSGEEIVEVIREIGEYAREAGIPRLTIGIENELDEETIDKAVKVADELGINLVLAIPDE
# B6: GBRAP_186_5390 (protein)
# chain: EEEEEEEEELLERLEEEYDIVIVVYLDEEDSLEEKKRTMERDVEAAAALARETGKRVAVLFRVTANEEELEELRAHAAELNERARAETGVAVALHGRLKP
# B7: GBRAP_117_2567 (protein)
# chain: SAEMEAHRAEVKALVDEASALIKARKAAPPEEQAALEAQLRDLIRTRTRELVERYGEDVTDELLEEELLSLDAEEYFTIELEREDAFAEIREEKEREERE
# B8: GBRAP_184_5034 (protein)
# chain: TVVERTIEAENLEELKAKVEALRAEVKGTGATLIVLAEIKNPTEEMVRALIEGLGAMRRAGDVSAVTLGFKEILSEELTDVALETGDKYGVRVVLPISDE
# B9: GBRAP_160_4797 (protein)
# chain: SERVEKVAELFREEAERAIEMAEGESHENRVNIFDVELGSAIMEAIEEGLLNDEEEDIAIEVRDKLIAELKANPDLTPEEIRALAEKAVKELEERLKELA
# B10: GBRAP_128_3227 (protein)
# chain: SAAEIAERVRALLAAIREAGPEEAAALARELAALVAAASVEEAEVAAEVIEELAPEMTEEQLDIMIDAFEAEARATDSPVALILRDIAIIFGEELLEKME
# B11: GBRAP_78_6680 (protein)
# chain: EVEEELDKAIEHLGKAASLLSKMKTEEALDILGEVIDAASTAEEARFGEADLKDLEEAKKKVEKALKEVKKIKTEEAKEVAKELEEAIKHLEKAIKLLKE
# B12: GBRAP_184_5272 (protein)
# chain: TVRHVEIEAETAEEAIAQVEAAAAEARAAGAKLRLTLLLKDASLEGVLRLLELLKELKDAGIIESATLELERLFSEEEIDQILAAADAAGVRVVLAIPDE
# B13: GBRAP_83_6880 (protein)
# chain: AEKITVAGPASRWEEIADAVIDLTKEEGYEVDVEVIATPEEIEKVLEMVKKLAEAGINTELLILGKGLTKEQAEELKKKIEEIAKKYGVDIKVEVILEEP
# B14: GBRAP_160_4027 (protein)
# chain: SEKIKEAMKFAKELFEEAEKLVEGQTAEQRAAIVAVTVGQIILEMTELGIDDDEVEDEIAKIGDEAVARILANPDLTEEEVKELIREAREKVLEALKKSE
# B15: GBRAP_160_4075 (protein)
# chain: SKETEELKKEIKEIAEEAIEFIKESNLENQIAIAEMMAGDILMLVFEAPFISDEDEERIDKILDKYVELLKENKDWSLEEKEEIIKEMAEEVIKEVEKAS
# B16: GBRAP_184_5044 (protein)
# chain: KIYERTIEAEDLEELKEKLEELEEEVKDFKGELIVLLKSPEFTEEMVKEALSRLKEMLEEGYVSSVTLGLDGKMSEEVIDLAIKLADEAGINLTIALEEE
# B17: GBRAP_117_2596 (protein)
# chain: SETEKKVEELVKELVEEIRKALEEMEELSEEEREELRKKLLERATEKVKEMLKLTDADTVEEFFAEALADLSPEDRVKAYIIFEEALAEAEDELEEEEEE
# B18: GBRAP_160_4148 (protein)
# chain: SEEIKKLIKEIKEIAEEALKLMEGETRENAKVIARVAFGEIVMLVFSNEAVSEETEEKVGEIARKAEEYLDANPDLTVEEIKEILKKAAEEVIKILEEEE
# B19: GBRAP_122_2958 (protein)
# chain: AAEEEALKAALAALEAAADKPLSEIVKTAMEALAKAKSEEAKKKIIEKAAEIISKKVPKVSKEEVLKILEEALKLMEEEGWTAAEAAAYADVEILDLEME
# Target: GABARAP, O95166
# Test: median log2 fold change of GCK-ALFA target abundance (FLAG IP / Myc IP barcode read proportion) (log2 ratio); each designed protein is fused to an ALFA-tag nanobody in HEK293 cells to bring the named protein to FLAG-tagged glucokinase (GCK); Myc marks an untargeted standard; higher = target protein stabilised (more abundant)
# Settings: target protein: 3xFLAG-MCP-GCK-ALFA reporter; HEK293 landing pad (RPLP)
# How it was run: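 Binders fused to an ALFA nanobody were recombined as a library into HEK293 landing-pad cells, which were induced with 2 μg mL^−1 doxycycline and then transfected to express a FLAG-tagged target and a Myc-tagged standard. After 48 h, circular RNA barcodes recovered by anti-FLAG and anti-Myc immunoprecipitation of lysates were reverse transcribed, amplified and sequenced. Each binder's target abundance is the median log2 ratio of FLAG to Myc barcode read proportions, from barcodes present at ≥10^−7 in both replicates, binders carrying ≥3 barcodes per replicate, a 10^−6 pseudocount and pooled replicates.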
# Chain of GABARAP, O95166 (O95166 whole entry, the tested form may be a part): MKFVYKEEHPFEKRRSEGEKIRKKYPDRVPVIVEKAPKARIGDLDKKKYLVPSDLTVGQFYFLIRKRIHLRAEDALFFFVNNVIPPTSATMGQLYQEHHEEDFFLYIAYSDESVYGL
row,Binder,median log2 fold change
1,B1,0.211
2,B2,0.255
3,B3,0.137
4,B4,-0.0618
5,B5,-0.00784
6,B6,0.154
7,B7,0.139
8,B8,0.176
9,B9,0.0551
10,B10,-0.122
11,B11,0.17
12,B12,0.279
13,B13,-0.0048
14,B14,0.302
15,B15,-0.29
16,B16,0.181
17,B17,0.171
18,B18,-0.132
19,B19,0.0664
